Laboratory results from PubChem BioAssay AID651820 (National Center for Advancing Translational Sciences (NCATS), 2012).
About 12,000 (3.5%) of roughly 340,000 compounds were called active. The shares of active, inactive and inconclusive entries below differ from those in the screen. The call rests on the fitted dose curve; in most records, active means well fitted inhibition curve with a large enough effect; inconclusive means small, poorly fitted or top-dose-only effect, or another doubt; inactive means no such curve, though single readings can be large or run the other way. Potencies of inconclusive entries are left out as doubtful fits.

Experiment: qHTS Assay for Inhibitors of Hepatitis C Virus (HCV)
Conditions: Huh7.5.1 HCVcc-Cre (HCVcc is cell-culture hepatitis C virus) infection, luciferase reporter, 44 h; series mostly up to 41.8 µM
How it was run: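 Compounds are dispensed onto cells plated 4 h earlier at 1,000 per well, with HCVcc-Cre virus (about 0.5 moi) added next. Following 44 h of culture, luminescent signal is measured for 15 sec after 15 min with substrate at room temperature.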
Potency means the concentration at half of the fitted maximal effect; tags describe the fitted curve by direction and shape.

**Q.** With `Cc1ccc(C(=O)CSc2nnc(COc3cccc(C)c3)o2)cc1` as the compound, how does the Potency read?
**A.** inconclusive [inhibitor, single point]

**Q.** Which Potency does the source give for `Cc1nnc(-c2cccc(Br)c2)c2cn(-c3cccc(Br)c3)nc12` here?
**A.** inconclusive [inhibitor, single point]

**Q.** With `Cc1ccc(S(=O)(=O)N2CCOCC2)cc1NC(=O)CNc1ccccc1N1CCCC1=O` as the compound, how does the Potency read?
**A.** inactive

**Q.** Which Potency does the source give for `C/C(=N\O)c1ccn(S(=O)(=O)c2ccc(Cl)cc2)c1` here?
**A.** inactive

**Q.** With `O=[N+]([O-])c1ccc(N2CCNCC2)c(Cl)c1` as the compound, how does the Potency read?
**A.** inconclusive [inhibitor, partial curve]

**Q.** Which Potency does the source give for `COc1ccccc1OCCn1cc(/C=N/NC(N)=S)c2ccccc21` here?
**A.** active: 8.91 µM

**Q.** With `O=C(CCCSc1ccccc1)Nc1nc(-c2ccccn2)cs1` as the compound, how does the Potency read?
**A.** inconclusive [inhibitor, single point]

**Q.** Which Potency does the source give for `CCOC(=O)c1cnc2c(F)ccc(F)c2c1Sc1ccccc1` here?
**A.** inactive

**Q.** For `CCOC(=O)C(C(=O)OCC)c1cc(Br)c2noc3c2c1C(=O)c1ccccc1-3`, which Potency is on record?
**A.** inconclusive [inhibitor, single point]

**Q.** With `O=C1/C(=C/c2cccs2)COc2ccccc21` as the compound, how does the Potency read?
**A.** inactive

**Q.** With `COc1ccc(NC(=O)c2cccc(S(=O)(=O)N3CCCCC3)c2)c(OC)c1` as the compound, how does the Potency read?
**A.** inactive

**Q.** For `Cc1ccc(C)c(OCCC(=O)Nc2cccc(S(=O)(=O)N3CCCCC3)c2)c1`, which Potency is on record?
**A.** inconclusive [inhibitor, partial curve]

**Q.** For `COc1ccc(-c2csc(NC(=O)c3ccc(S(=O)(=O)N4CCc5ccccc5C4)cc3)n2)c(OC)c1`, which Potency is on record?
**A.** inconclusive [inhibitor, full curve]

**Q.** With `COc1ccc(/C=C2/SC(=S)N(CCCC(=O)Nc3ccc(O)cc3)C2=O)cc1` as the compound, how does the Potency read?
**A.** inconclusive [inhibitor, single point]

**Q.** For `O=C(Nc1cc2c(cc1Cl)OCCCO2)c1ccccc1`, which Potency is on record?
**A.** inconclusive [inhibitor, single point]

**Q.** With `O=C(c1ccc(Br)cc1)C1CCc2occc2C1=O` (centres undefined) as the compound, how does the Potency read?
**A.** inconclusive [inhibitor, single point]

**Q.** Which Potency does the source give for `Cc1ccc(N2CCN(C(=O)C3CCCN(c4ncnc5c4nc4n5CCCCC4)C3)CC2)c(C)c1` (centres undefined) here?
**A.** inactive

**Q.** Which Potency does the source give for `O=C(Cc1ccc(Cl)cc1)NC(=S)Nc1ccccc1N1CCOCC1` here?
**A.** inconclusive [inhibitor, single point]

**Q.** Which Potency does the source give for `COc1ccc(COC(=O)c2ccc(Br)c(S(=O)(=O)N3CCOCC3)c2)cc1F` here?
**A.** inconclusive [inhibitor, partial curve]

**Q.** Which Potency does the source give for `CCOC(=O)N1CCN(c2nc3ccc(C(=O)c4ccccc4)cc3n3cnnc23)CC1` here?
**A.** inconclusive [inhibitor, partial curve]

**Q.** Which Potency does the source give for `COc1ccc(OC)c(/C=C/C(=O)Nc2cccc(S(=O)(=O)N3CCCC3)c2)c1` here?
**A.** inconclusive [inhibitor, full curve]

**Q.** Which Potency does the source give for `CCOCCCNS(=O)(=O)c1ccc(NC(=O)N2c3ccccc3Sc3ccccc32)cc1` here?
**A.** inconclusive [inhibitor, single point]

**Q.** Which Potency does the source give for `COc1ccccc1NC(c1cccnc1)c1ccc2cccnc2c1O` (centres undefined) here?
**A.** inconclusive [inhibitor, single point]

**Q.** Which Potency does the source give for `Cc1nc(SCC(=O)Nc2ccc(S(=O)(=O)N3CCOCC3)cc2)c2c(C)c(C)sc2n1` here?
**A.** active: 7.08 µM

**Q.** For `CC(C)CCn1c(O)c(N=Nc2ccccn2)c2ccccc21`, which Potency is on record?
**A.** inconclusive [inhibitor, partial curve]

**Q.** Which Potency does the source give for `COc1ccc2ccccc2c1/C=N\NC(=O)c1cccnc1` here?
**A.** inconclusive [inhibitor, single point]

**Q.** With `Cn1ccc(C(=O)N/N=C/c2cccnc2)n1` as the compound, how does the Potency read?
**A.** inactive

**Q.** With `O=S(=O)(Oc1ccccc1-c1ccccc1)c1ccccc1` as the compound, how does the Potency read?
**A.** inconclusive [inhibitor, single point]

**Q.** For `CC(CN1CCCCC1)OC(=O)c1ccccc1Cl` (centres undefined), which Potency is on record?
**A.** inactive

**Q.** With `Cc1cc(NC(=O)C2CC(c3ccc(Cl)cc3)=NO2)no1` (centres undefined) as the compound, how does the Potency read?
**A.** inactive

**Q.** Which Potency does the source give for `COc1ccc(C(C(=O)NC(C)(C)C)N(Cc2cccs2)C(=O)CCC(=O)Nc2cc(C)on2)cc1` (centres undefined) here?
**A.** inconclusive [inhibitor, partial curve]

**Q.** For `Cc1ccc(C)c(NC(=O)c2nnn(Cc3ccccc3C)c2N)c1`, which Potency is on record?
**A.** inconclusive [inhibitor, partial curve]

**Q.** With `Cc1cc(NC(=O)CSc2nc(-c3cccs3)nc3ccccc23)no1` as the compound, how does the Potency read?
**A.** inconclusive [inhibitor, partial curve, poor fit]

**Q.** Which Potency does the source give for `Fc1ccccc1Nc1nc2c(s1)CCc1ccccc1-2` here?
**A.** inconclusive [inhibitor, single point]

**Q.** Which Potency does the source give for `O=C(NC(=S)Nc1cccc(Cl)c1N1CCCCC1)c1cccs1` here?
**A.** inconclusive [inhibitor, single point]

**Q.** For `Cc1cccn2c(=O)c3cc(S(=O)(=O)c4ccccc4)c(=N)n(CC4CCCO4)c3nc12` (centres undefined), which Potency is on record?
**A.** inconclusive [inhibitor, partial curve]

**Q.** With `O=C1N[C@@H](Cc2ccccc2)COC(=O)[C@@H](Cc2ccc(F)cc2)C/C=C\C[C@@H]1CC(=O)N(CCO)Cc1ccccc1` as the compound, how does the Potency read?
**A.** inconclusive [inhibitor, single point]

**Q.** Which Potency does the source give for `N#CC1(c2nc3ccccc3[nH]2)CC1c1ccc2c(c1)OCO2` (centres undefined) here?
**A.** inconclusive [inhibitor, partial curve]

**Q.** With `COc1ccccc1N1CCN(C(=O)CCCCn2c(=O)[nH]c3ccsc3c2=O)CC1` as the compound, how does the Potency read?
**A.** inactive

**Q.** Which Potency does the source give for `Cc1onc(-c2ccccc2)c1C(=O)OCC(=O)N(CC(C)C)c1c(N)n(Cc2ccccc2)c(=O)[nH]c1=O` here?
**A.** inconclusive [inhibitor, partial curve]

**Q.** Which Potency does the source give for `Clc1ccccc1CSc1cnnc2ccccc12` here?
**A.** inactive

**Q.** For `O=[N+]([O-])c1ccc(/C=N/Nc2ncccc2[N+](=O)[O-])s1`, which Potency is on record?
**A.** inactive

**Q.** Which Potency does the source give for `COc1cccc(NC(=O)Nc2nc(-c3ccc(OC)c(OC)c3)cs2)c1` here?
**A.** active: 2.82 µM

**Q.** For `CCOC(=O)c1ccccc1NC(=O)c1c(O)c2ccccc2n(CC)c1=O`, which Potency is on record?
**A.** inactive

**Q.** For `O=C(CSc1cccc(C(F)(F)F)c1)N1CCN(S(=O)(=O)c2ccccc2)CC1`, which Potency is on record?
**A.** inactive

**Q.** With `CC(C)C[C@H](N)c1nnc(S(=O)(=O)Cc2cccc(F)c2)o1` as the compound, how does the Potency read?
**A.** inconclusive [inhibitor, single point]

**Q.** Which Potency does the source give for `COc1ccc(CN2CCN(C(=O)c3ccc(S(=O)(=O)N4CCCCCC4)cc3)CC2)cc1` here?
**A.** inconclusive [inhibitor, partial curve]

**Q.** For `C=COC(=O)CSc1nc(-c2cccs2)ccc1C#N`, which Potency is on record?
**A.** inactive

**Q.** Which Potency does the source give for `Cc1[nH]c2ccc(C(=O)NCc3ccccn3)cc2c1C` here?
**A.** inactive

**Q.** Which Potency does the source give for `O=C(Nc1ccc(NC(=S)NC(=O)c2ccccc2F)cc1)c1cccs1` here?
**A.** inconclusive [inhibitor, single point]

**Q.** With `O=C(Cc1ccc(Cl)cc1)Nc1ccc2oc(=O)ccc2c1` as the compound, how does the Potency read?
**A.** inconclusive [inhibitor, single point]

**Q.** Which Potency does the source give for `Cc1c(C(=O)N2CC(C(=O)N3CCCCC3)Oc3ccccc32)oc2ccccc12` (centres undefined) here?
**A.** inconclusive [inhibitor, single point]

**Q.** For `Cc1sc2nc(CSc3nnnn3-c3ccc(Cl)cc3)[nH]c(=O)c2c1C`, which Potency is on record?
**A.** inconclusive [inhibitor, partial curve]

**Q.** Which Potency does the source give for `Clc1ccc(OCc2cn3ccccc3n2)c2ncccc12` here?
**A.** inactive

**Q.** Which Potency does the source give for `O=C(Nc1cccc([N+](=O)[O-])c1)ONC1=NCCCCC1` here?
**A.** inconclusive [inhibitor, single point]

**Q.** For `COc1ccc(NC2=CC(=O)CC(c3ccc(C)cc3)C2)c(OC)c1` (centres undefined), which Potency is on record?
**A.** inconclusive [inhibitor, single point]

**Q.** Which Potency does the source give for `COc1ccc(N2CCN(C(=O)COC(=O)c3oc4ccc(OC)cc4c3C)CC2)cc1` here?
**A.** inconclusive [inhibitor, single point]

**Q.** Which Potency does the source give for `O=C(CSc1nc(-c2ccccc2)c(-c2ccccc2)[nH]1)Nc1nccs1` here?
**A.** inconclusive [inhibitor, single point]

**Q.** With `CCOc1ccc2nc(NC(=O)c3ccoc3C)sc2c1` as the compound, how does the Potency read?
**A.** inconclusive [inhibitor, partial curve]

**Q.** For `C1=Nc2c(Nc3ccccc3)ncnc2Oc2ccccc21`, which Potency is on record?
**A.** inconclusive [inhibitor, single point]

**Q.** For `COc1ccc(C(C(=O)NC2CCCC2)N(C(=O)c2ccoc2C)c2ccc(C)c(C)c2)cc1` (centres undefined), which Potency is on record?
**A.** inactive

**Q.** With `CC(=O)c1c(N2CCN(c3ccc(F)cc3)CC2)nc(=S)n(-c2ccccc2)c1C` as the compound, how does the Potency read?
**A.** inconclusive [inhibitor, full curve, poor fit]

**Q.** Which Potency does the source give for `CCn1c(O)c(N=NC(=O)c2ccc(CSc3nncn3C)cc2)c2ccccc21` here?
**A.** inconclusive [inhibitor, partial curve]

**Q.** For `Cc1cccc(Nc2nc(NC(C)C)nc(Oc3ccc(=O)n(C)n3)n2)c1`, which Potency is on record?
**A.** inconclusive [inhibitor, full curve, poor fit]

**Q.** For `Cc1onc(-c2ccccc2)c1C(=O)N(C)CC(=O)Nc1ccc(F)c(F)c1F`, which Potency is on record?
**A.** inconclusive [inhibitor, single point]

**Q.** With `CC1c2ccccc2-c2ccccc2N1C` (centres undefined) as the compound, how does the Potency read?
**A.** active: 12.6 µM

**Q.** With `CCOC(=O)c1cccc(NC(=O)CSc2nnnn2CC)c1` as the compound, how does the Potency read?
**A.** inactive

**Q.** Which Potency does the source give for `CCCc1c(C(=O)N/N=C/C(C)=C/c2ccco2)nnn1-c1nonc1N` here?
**A.** inconclusive [inhibitor, full curve, poor fit]

**Q.** Which Potency does the source give for `CN1CCN(c2ncnc3sc(-c4ccccc4)cc23)CC1` here?
**A.** inconclusive [inhibitor, full curve, poor fit]
